Assay results taken from PMC8516944.
No constants are given. Whether binding was seen depends on the method and setting. For part of these data: In cells and extracts the contact can be indirect. Some results given as binding are weak or reduced against the parent protein; the word gives no strength. For part of these data: Tags and fused reporters may be left off the sequences shown. Each block holds one binder with its values, some of them ahead of it.

Legend:
[1] = biological target: T1, FLAG-AFP (alpha fetoprotein), expressed in HEK293T cells (UniProt P02771); assay: co-IP; HEK293T cells co-transfected with FLAG-AFP and HA-GP73 (or HA-tagged deletion mutants); IP lysis buffer (25 mM Tris-HCl pH 7.4, 150 mM NaCl, 1% Nonidet P-40, 1 mM EDTA, 5% glycerol); immunoprecipitation with anti-HA or anti-FLAG, Protein A-Sepharose, overnight at 4 °C; western blotting
T1 sequence: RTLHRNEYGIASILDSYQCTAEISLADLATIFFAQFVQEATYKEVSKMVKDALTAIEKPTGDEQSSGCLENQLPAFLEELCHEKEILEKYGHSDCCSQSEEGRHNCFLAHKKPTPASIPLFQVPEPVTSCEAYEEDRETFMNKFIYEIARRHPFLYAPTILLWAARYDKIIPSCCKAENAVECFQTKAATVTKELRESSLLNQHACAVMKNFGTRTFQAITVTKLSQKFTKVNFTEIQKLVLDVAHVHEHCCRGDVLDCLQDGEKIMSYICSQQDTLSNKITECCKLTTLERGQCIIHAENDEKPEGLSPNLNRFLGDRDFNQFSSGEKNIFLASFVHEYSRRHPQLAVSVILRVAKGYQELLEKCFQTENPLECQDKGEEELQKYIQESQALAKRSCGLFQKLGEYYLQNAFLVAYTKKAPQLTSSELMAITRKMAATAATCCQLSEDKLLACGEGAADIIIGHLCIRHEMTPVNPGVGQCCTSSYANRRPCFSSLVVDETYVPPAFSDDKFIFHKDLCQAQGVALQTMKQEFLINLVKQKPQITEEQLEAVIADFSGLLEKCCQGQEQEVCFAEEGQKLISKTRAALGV

[2] = biological target: T2, FLAG-AFP expressed in HepG2 cells (UniProt P02771); assay: co-IP; HepG2 cells co-transfected with HA-GP73 and FLAG-AFP, with or without sorafenib (10 μmol/L, 24 h); IP lysis buffer; immunoprecipitation with anti-HA, western blotting with anti-HA or anti-FLAG
T2 sequence: T1 sequence

GST-AFP = biological target: T3, GST-AFP (UniProt P02771); assay: pull-down; GST or GST-AFP on glutathione-Sepharose beads in PBS; His-GP73 added for 4 h at 4 °C; western blotting with anti-His; both purified
T3 sequence: T1 sequence

[3] = biological target: T4, endogenous AFP of HepG2 cells (human (endogenous in HepG2)) (UniProt P02771); assay: co-IP; endogenous proteins of HepG2 cells; IP lysis buffer; immunoprecipitation with anti-AFP or anti-GP73 antibody, Protein A-Sepharose, overnight at 4 °C; western blotting
T4 sequence: T1 sequence

[4] = biological target: T5, GST-tagged domain III of GP73 (amino acid residues 36–205) (UniProt Q8NBJ4); assay: pull-down; GST or GST-tagged domains of GP73 on glutathione-Sepharose beads; lysate of HEK293T cells transfected with FLAG-AFP; western blotting with anti-FLAG; only the target purified
T5 sequence: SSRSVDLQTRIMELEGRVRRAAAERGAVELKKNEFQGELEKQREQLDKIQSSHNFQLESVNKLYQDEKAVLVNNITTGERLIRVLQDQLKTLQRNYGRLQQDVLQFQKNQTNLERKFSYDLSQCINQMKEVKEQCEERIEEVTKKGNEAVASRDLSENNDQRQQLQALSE

B1: HA-GP73 (Golgi protein 73), wild type, expressed in HEK293T cells (protein, UniProt Q8NBJ4 1-401)
chain: MMGLGNGRRSMKSPPLVLAALVACIIVLGFNYWIASSRSVDLQTRIMELEGRVRRAAAERGAVELKKNEFQGELEKQREQLDKIQSSHNFQLESVNKLYQDEKAVLVNNITTGERLIRVLQDQLKTLQRNYGRLQQDVLQFQKNQTNLERKFSYDLSQCINQMKEVKEQCEERIEEVTKKGNEAVASRDLSENNDQRQQLQALSEPQPRLQAAGLPHTEVPQGKGNVLGNSKSQTPAPSSEVVLDSKRQVEKEETNEIQVVNEEPQRDRLPQEPGREQVVEDRPVGGRGFGGAGELGQTPQVQAALSVSQENPEMEGPERDQLVIPDGQEEEQEAAGEGRNQQKLRGEDDYNMDENEAESETDKQAALAGNDRNIDVFNVEDQKRDTINLLDQREKRNHTL
binding [1]: binds

B2: HA-GP73 expressed in HepG2 cells (protein, UniProt Q8NBJ4 1-401)
chain: B1 chain
binding [2]: binds

B5: HA-GP73 Δ36–100 (protein, UniProt Q8NBJ4)
chain: MMGLGNGRRSMKSPPLVLAALVACIIVLGFNYWIADEKAVLVNNITTGERLIRVLQDQLKTLQRNYGRLQQDVLQFQKNQTNLERKFSYDLSQCINQMKEVKEQCEERIEEVTKKGNEAVASRDLSENNDQRQQLQALSEPQPRLQAAGLPHTEVPQGKGNVLGNSKSQTPAPSSEVVLDSKRQVEKEETNEIQVVNEEPQRDRLPQEPGREQVVEDRPVGGRGFGGAGELGQTPQVQAALSVSQENPEMEGPERDQLVIPDGQEEEQEAAGEGRNQQKLRGEDDYNMDENEAESETDKQAALAGNDRNIDVFNVEDQKRDTINLLDQREKRNHTL
binding [1]: no binding

B9: FLAG-AFP (alpha fetoprotein), expressed in HEK293T cells (protein, UniProt P02771 19-609)
chain: T1 sequence
binding [4]: binds

Next, values leading:

binding (GST-AFP): binds
B3: His-GP73 (protein, UniProt Q8NBJ4 1-401)
chain: B1 chain

binding [3]: binds
B4: endogenous GP73 of HepG2 cells (protein, UniProt Q8NBJ4 1-401)
chain: B1 chain

binding [1]: no binding
B6: HA-GP73 Δ56–92 (protein, UniProt Q8NBJ4)
chain: MMGLGNGRRSMKSPPLVLAALVACIIVLGFNYWIASSRSVDLQTRIMELEGRVRRESVNKLYQDEKAVLVNNITTGERLIRVLQDQLKTLQRNYGRLQQDVLQFQKNQTNLERKFSYDLSQCINQMKEVKEQCEERIEEVTKKGNEAVASRDLSENNDQRQQLQALSEPQPRLQAAGLPHTEVPQGKGNVLGNSKSQTPAPSSEVVLDSKRQVEKEETNEIQVVNEEPQRDRLPQEPGREQVVEDRPVGGRGFGGAGELGQTPQVQAALSVSQENPEMEGPERDQLVIPDGQEEEQEAAGEGRNQQKLRGEDDYNMDENEAESETDKQAALAGNDRNIDVFNVEDQKRDTINLLDQREKRNHTL

binding [1]: binds
B7: HA-GP73 Δ146–205 (protein, UniProt Q8NBJ4)
chain: MMGLGNGRRSMKSPPLVLAALVACIIVLGFNYWIASSRSVDLQTRIMELEGRVRRAAAERGAVELKKNEFQGELEKQREQLDKIQSSHNFQLESVNKLYQDEKAVLVNNITTGERLIRVLQDQLKTLQRNYGRLQQDVLQFQKNQPQPRLQAAGLPHTEVPQGKGNVLGNSKSQTPAPSSEVVLDSKRQVEKEETNEIQVVNEEPQRDRLPQEPGREQVVEDRPVGGRGFGGAGELGQTPQVQAALSVSQENPEMEGPERDQLVIPDGQEEEQEAAGEGRNQQKLRGEDDYNMDENEAESETDKQAALAGNDRNIDVFNVEDQKRDTINLLDQREKRNHTL

binding [1]: binds
B8: HA-GP73 Δ91–150 (protein, UniProt Q8NBJ4)
chain: MMGLGNGRRSMKSPPLVLAALVACIIVLGFNYWIASSRSVDLQTRIMELEGRVRRAAAERGAVELKKNEFQGELEKQREQLDKIQSSHNFKFSYDLSQCINQMKEVKEQCEERIEEVTKKGNEAVASRDLSENNDQRQQLQALSEPQPRLQAAGLPHTEVPQGKGNVLGNSKSQTPAPSSEVVLDSKRQVEKEETNEIQVVNEEPQRDRLPQEPGREQVVEDRPVGGRGFGGAGELGQTPQVQAALSVSQENPEMEGPERDQLVIPDGQEEEQEAAGEGRNQQKLRGEDDYNMDENEAESETDKQAALAGNDRNIDVFNVEDQKRDTINLLDQREKRNHTL
